# This is one part of the list. Values were computed here from the reads of four pooled replicates and scatter widely.
# Biological target: T1, Pho4 (S. cerevisiae) (UniProt P07270)
# T1 sequence: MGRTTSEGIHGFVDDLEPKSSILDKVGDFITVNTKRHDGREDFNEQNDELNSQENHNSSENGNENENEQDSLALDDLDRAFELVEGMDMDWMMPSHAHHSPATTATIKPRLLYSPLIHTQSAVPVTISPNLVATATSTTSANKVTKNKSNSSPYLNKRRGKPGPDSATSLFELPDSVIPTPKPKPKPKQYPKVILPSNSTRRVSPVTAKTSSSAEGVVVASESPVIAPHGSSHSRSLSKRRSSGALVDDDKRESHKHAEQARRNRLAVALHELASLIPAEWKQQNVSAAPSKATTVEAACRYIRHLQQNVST
# Assay: relative binding free energy (BET-seq); higher = weaker binding
# Conditions: reference: library average
row,Sequence,relative binding free energy
1,TTGGTCACGTGGGAGG,-0.06 kcal/mol
2,GGGTCCACGTGATTTG,0.3 kcal/mol
3,CAGTTCACGTGTTTAG,0.33 kcal/mol
4,GTTCTCACGTGTGGCT,0.24 kcal/mol
5,CGTGTCACGTGTTAGT,0.1 kcal/mol
6,GTATGCACGTGGTATA,-0.12 kcal/mol
7,AAGTTCACGTGGAAAT,0.4 kcal/mol
8,GTTGGCACGTGGGGCG,-0.14 kcal/mol
9,GTGCGCACGTGTGCAG,-0.11 kcal/mol
10,TTGTGCACGTGGGATG,-0.09 kcal/mol
11,TTGTTCACGTGCCTTT,0.1 kcal/mol
12,CAGTGCACGTGGAAGT,-0.03 kcal/mol
13,TATGTCACGTGGGTCA,-0.14 kcal/mol
14,AGTAACACGTGGAATT,0.18 kcal/mol
15,ACGGACACGTGGTGGC,0 kcal/mol
16,GGCATCACGTGTTAGG,0.2 kcal/mol
17,TATCACACGTGTTGGG,-0.1 kcal/mol
18,CGAATCACGTGGGTTG,0.09 kcal/mol
19,GTTTGCACGTGTGAAT,0.16 kcal/mol
20,GGAGTCACGTGGTCGG,0.1 kcal/mol
21,TGTTGCACGTGGAGTT,0.07 kcal/mol
22,ATTGTCACGTGGGTGG,-0.02 kcal/mol
23,TTGTTCACGTGTTGAC,0.21 kcal/mol
24,TGGGTCACGTGACTTT,0.16 kcal/mol
25,TTAGGCACGTGTGCGC,-0.09 kcal/mol
26,GGTGACACGTGGTTGG,0 kcal/mol

row,Sequence,relative binding free energy
1,GGATGCACGTGACGTG,0.11 kcal/mol
2,GTAGTCACGTGCGAAG,0.15 kcal/mol
3,GTATGCACGTGATGGA,0.15 kcal/mol
4,TGTTGCACGTGACTAT,0.1 kcal/mol
5,CCTTGCACGTGGTTGT,-0.1 kcal/mol
6,TGTGTCACGTGGTAGC,-0.01 kcal/mol
7,TTGGGCACGTGTGTGA,-0.02 kcal/mol
8,GCAGTCACGTGGTTTT,0.19 kcal/mol
9,ATTTTCACGTGCAGGT,0.29 kcal/mol
10,ACGTGCACGTGGGCAT,-0.17 kcal/mol
11,CGACTCACGTGGGTTA,0.21 kcal/mol
12,GTTAGCACGTGCTTAG,0.08 kcal/mol
13,TGAGTCACGTGACGGA,0.15 kcal/mol
14,AGTAGCACGTGTTGAA,0.02 kcal/mol
15,TGTATCACGTGCTTAT,0.15 kcal/mol
16,GTACGCACGTGGTGGG,-0.27 kcal/mol
17,TAATGCACGTGAGTAA,0.15 kcal/mol
18,ATTTTCACGTGTCGAT,0.28 kcal/mol
19,AGTTACACGTGCTGGT,0.1 kcal/mol
20,GGGGACACGTGAGCAG,0.26 kcal/mol
21,GAGGGCACGTGGGAGG,-0.08 kcal/mol
22,ATCATCACGTGGATGG,0.15 kcal/mol
23,ATAGGCACGTGACGGT,-0.04 kcal/mol
24,ACTAGCACGTGGGGGT,-0.18 kcal/mol
25,GGAGTCACGTGGTCGC,0.06 kcal/mol
26,GGATACACGTGGGTTC,0.01 kcal/mol

row,Sequence,relative binding free energy
1,GCAATCACGTGTTGTG,0.2 kcal/mol
2,GATGACACGTGGGTTG,-0.01 kcal/mol
3,CTTGTCACGTGAGATG,0.18 kcal/mol
4,TTGGACACGTGGATGT,0.08 kcal/mol
5,TGGCGCACGTGTTGAG,-0.08 kcal/mol
6,TATGGCACGTGGGATA,-0.14 kcal/mol
7,GGTGCCACGTGTAGAT,0.15 kcal/mol
8,TTGGGCACGTGAAGTA,0.17 kcal/mol
9,GTATTCACGTGCCGGT,0.33 kcal/mol
10,GGTGACACGTGGTGCA,-0.13 kcal/mol
11,GGTGCCACGTGTTTTG,0 kcal/mol
12,AGATTCACGTGGGGCA,0.03 kcal/mol
13,CGTTGCACGTGCTGGA,-0.06 kcal/mol
14,CTTATCACGTGAATTG,0.26 kcal/mol
15,TAGAGCACGTGCGGAG,-0.05 kcal/mol
16,ATTGACACGTGTGGCG,0.12 kcal/mol
17,ATCGTCACGTGATGTG,0.16 kcal/mol
18,TGGTCCACGTGGGAAG,-0.09 kcal/mol
19,AATGGCACGTGGGCGG,-0.12 kcal/mol
20,AAGTCCACGTGATGGT,0.09 kcal/mol
21,AGGATCACGTGTGATG,0.29 kcal/mol
22,TAGTTCACGTGAAGTG,0.32 kcal/mol
23,GTGGCCACGTGTTGAG,0.03 kcal/mol
24,GTATACACGTGCGGGG,-0.03 kcal/mol
25,AGCGGCACGTGGGGTT,-0.17 kcal/mol
26,ATGTTCACGTGCGTTC,0.28 kcal/mol

row,Sequence,relative binding free energy
1,TGGGACACGTGAGTTT,0.26 kcal/mol
2,TGGGTCACGTGCAGGC,0.12 kcal/mol
3,GTACACACGTGTGTTT,0.02 kcal/mol
4,TGTGGCACGTGGTCAA,-0.36 kcal/mol
5,GTAAACACGTGGGGGT,-0.01 kcal/mol
6,GGATGCACGTGTGCTG,-0.02 kcal/mol
7,TGGGGCACGTGTCAGA,-0.16 kcal/mol
8,TCGTTCACGTGGGGGG,0.21 kcal/mol
9,GTATACACGTGGTTTG,0.01 kcal/mol
10,AGGATCACGTGGGAAT,0.04 kcal/mol
11,ATACGCACGTGTGGTT,-0.22 kcal/mol
12,TTTTACACGTGGATAT,0.08 kcal/mol
13,TATTGCACGTGTTTCT,0.05 kcal/mol
14,TGCAGCACGTGGATGA,0.03 kcal/mol
15,GAGTCCACGTGTGGGG,0.18 kcal/mol
16,GAGGTCACGTGGTCTA,0.05 kcal/mol
17,GTATGCACGTGTTTTT,0.09 kcal/mol
18,CGGCTCACGTGGTTAT,0.08 kcal/mol
19,TGGTGCACGTGGCTTA,-0.17 kcal/mol
20,ATTCTCACGTGGTTTG,0.16 kcal/mol
21,AATTACACGTGGCGTT,0.03 kcal/mol
22,GAGATCACGTGGATTG,0.23 kcal/mol
23,GGTTGCACGTGGCATT,-0.07 kcal/mol
24,ATTTTCACGTGTAGGA,0.23 kcal/mol
25,GCACACACGTGTTGGG,0.21 kcal/mol
26,AGATACACGTGAGGCG,0.36 kcal/mol

row,Sequence,relative binding free energy
1,GTTGCCACGTGGGGTC,-0.16 kcal/mol
2,TGGATCACGTGCGGGC,0.05 kcal/mol
3,GGTTTCACGTGTAATG,0.32 kcal/mol
4,TTCGGCACGTGGAAAG,-0.08 kcal/mol
5,GAGTGCACGTGGAAGT,0.12 kcal/mol
6,GGTAGCACGTGGTGGA,-0.07 kcal/mol
7,AGAGGCACGTGGCTTA,-0.13 kcal/mol
8,GTATTCACGTGGCGCT,0.18 kcal/mol
9,TTAATCACGTGTTGTT,0.13 kcal/mol
10,GGGTGCACGTGCTGGC,-0.04 kcal/mol
11,TGGTGCACGTGGGAGC,-0.1 kcal/mol
12,TTTATCACGTGTACTG,-0.01 kcal/mol
13,TGCGGCACGTGCGAGT,-0.03 kcal/mol
14,GTTGCCACGTGTTTAT,-0.12 kcal/mol
15,AGCTTCACGTGGCGTG,0.16 kcal/mol
16,GGTGCCACGTGTAGGA,-0.15 kcal/mol
17,TGGACCACGTGGGTCG,-0.17 kcal/mol
18,AAGATCACGTGATGGT,0.22 kcal/mol
19,ATAGTCACGTGGGGTA,-0.13 kcal/mol
20,TTATGCACGTGCGGGG,-0.12 kcal/mol
21,TGCTGCACGTGGGGGC,-0.17 kcal/mol
22,GGAAACACGTGGTTGT,0.05 kcal/mol
23,GCTGGCACGTGCAGGG,-0.07 kcal/mol
24,CTGTGCACGTGTTAGG,0.06 kcal/mol
25,CCGTTCACGTGGTGGG,0.15 kcal/mol
26,TGATACACGTGTGCTT,0.1 kcal/mol

row,Sequence,relative binding free energy
1,TTAAGCACGTGCAGTT,-0.17 kcal/mol
2,AGCTGCACGTGCAGGG,0 kcal/mol
3,TGTGACACGTGGAATG,0.05 kcal/mol
4,AAGATCACGTGTTTGT,0 kcal/mol
5,GTCATCACGTGATGTT,0.23 kcal/mol
6,GTTGTCACGTGGTGAA,0.06 kcal/mol
7,AGGCTCACGTGTGTGA,0.27 kcal/mol
8,ATTAGCACGTGGTCGT,-0.21 kcal/mol
9,ACCATCACGTGTGGGG,0.23 kcal/mol
10,GATGCCACGTGGTGTA,-0.11 kcal/mol
11,TTAGGCACGTGTTCTA,-0.14 kcal/mol
12,GTATGCACGTGTAGGT,0.02 kcal/mol
13,GCGTTCACGTGTTTTG,0.38 kcal/mol
14,TTAGCCACGTGGGTTG,-0.19 kcal/mol
15,GTTTGCACGTGAGTCA,0.14 kcal/mol
16,TGTGGCACGTGCAGAT,-0.07 kcal/mol
17,AAATTCACGTGTGGAA,0.39 kcal/mol
18,ATTGTCACGTGTTGTG,0.09 kcal/mol
19,TATTCCACGTGGTGTT,0.07 kcal/mol
20,GCTTTCACGTGTAGGG,0.21 kcal/mol
21,TAACGCACGTGCGGGT,-0.08 kcal/mol
22,TGGGTCACGTGTCTGA,0.04 kcal/mol
23,TGACGCACGTGTAGAG,-0.06 kcal/mol
24,ATCGGCACGTGTAGGA,0.06 kcal/mol
25,TTTGTCACGTGATTGA,0.27 kcal/mol
26,ATAGTCACGTGGTAAT,0.05 kcal/mol

row,Sequence,relative binding free energy
1,GATTACACGTGAGGCT,0.34 kcal/mol
2,CTTGGCACGTGGGGAG,-0.22 kcal/mol
3,TTATGCACGTGTGCAG,0.02 kcal/mol
4,AGGGACACGTGTTTTA,0.05 kcal/mol
5,GGTGTCACGTGTTCGT,0.04 kcal/mol
6,AGGTTCACGTGTGTGG,0.18 kcal/mol
7,AGGATCACGTGAGGGA,0.31 kcal/mol
8,GGGCACACGTGATGTT,-0.02 kcal/mol
9,TGGGTCACGTGGTGAG,0.09 kcal/mol
10,TTTACCACGTGGCGTT,-0.16 kcal/mol
11,GGGGGCACGTGGCAGC,-0.13 kcal/mol
12,GGGTGCACGTGACGTT,0.17 kcal/mol
13,TTATACACGTGGGGGT,-0.12 kcal/mol
14,ATTAACACGTGGGGAG,-0.15 kcal/mol
15,TTGGGCACGTGCGACT,-0.01 kcal/mol
16,GTGCTCACGTGTAATG,0.18 kcal/mol
17,TGGTGCACGTGGTATA,-0.1 kcal/mol
18,AAGGACACGTGTTTCG,0.14 kcal/mol
19,GGAGACACGTGAGTGG,0.2 kcal/mol
20,TTGGTCACGTGACTGG,0.18 kcal/mol
21,GCAGTCACGTGGTTGG,-0.08 kcal/mol
22,GGGGCCACGTGATCGG,0.07 kcal/mol
23,TTTAACACGTGATGGA,0.13 kcal/mol
24,GGGTGCACGTGATGTA,0.05 kcal/mol
25,CGGCGCACGTGAGGGG,0.17 kcal/mol
26,GGTGTCACGTGTCGCT,0.02 kcal/mol

row,Sequence,relative binding free energy
1,TCTAGCACGTGTAGTG,-0.04 kcal/mol
2,TTGGTCACGTGATCAT,0.17 kcal/mol
3,AAATGCACGTGAATGT,0.22 kcal/mol
4,GAAAGCACGTGGTGTA,-0.19 kcal/mol
5,GGAGACACGTGGGGCG,-0.12 kcal/mol
6,AAGAGCACGTGGGGTC,-0.08 kcal/mol
7,TTGGGCACGTGGCTAG,-0.23 kcal/mol
8,TTGTGCACGTGTCGTT,-0.02 kcal/mol
9,AGGGGCACGTGTGGTC,-0.09 kcal/mol
10,AAGTGCACGTGTGCTG,-0.17 kcal/mol
11,GGCGTCACGTGAAGGG,0.36 kcal/mol
12,ATAGGCACGTGGCGTT,-0.24 kcal/mol
13,TGTATCACGTGCTCTG,0.15 kcal/mol
14,TGTATCACGTGCAAAT,0.26 kcal/mol
15,AGGAACACGTGCATGG,0.12 kcal/mol
16,ATGTTCACGTGGGTTC,0.23 kcal/mol
17,AATGCCACGTGCGTGG,-0.07 kcal/mol
18,TTCTACACGTGTAGGG,0.01 kcal/mol
19,GTGGCCACGTGGGGTC,-0.09 kcal/mol
20,GGAGGCACGTGATGTT,-0.04 kcal/mol
21,GTTTACACGTGCTATT,0.02 kcal/mol
22,TTTGGCACGTGTTTCC,-0.1 kcal/mol
23,GTCGTCACGTGGAGTG,0.19 kcal/mol
24,GGTGACACGTGTGTTT,0.14 kcal/mol
25,TTGCTCACGTGTGGCT,0.08 kcal/mol
26,CATGGCACGTGAGTTA,0.23 kcal/mol

row,Sequence,relative binding free energy
1,TGTATCACGTGCAGGA,0.13 kcal/mol
2,AAGCTCACGTGATGTA,0.38 kcal/mol
3,TAGATCACGTGATGGC,0.25 kcal/mol
4,TGTTACACGTGGTGTA,0.02 kcal/mol
5,ATATACACGTGGTAAG,0.11 kcal/mol
6,ATGGTCACGTGAACGT,0.32 kcal/mol
7,TCTTTCACGTGGTTCT,0.11 kcal/mol
8,TGCGACACGTGTTTGT,0.13 kcal/mol
9,AGTTGCACGTGGAATA,0.13 kcal/mol
10,GGGTCCACGTGATGGT,0.11 kcal/mol
11,TTCGTCACGTGAGGGT,0.29 kcal/mol
12,GCAAGCACGTGATGGG,0.06 kcal/mol
13,CGGGGCACGTGGGTCT,-0.28 kcal/mol
14,GGCTCCACGTGGTGTT,0.01 kcal/mol
15,GATTGCACGTGAAAGT,0.18 kcal/mol
16,TCATTCACGTGTGGGT,0.22 kcal/mol
17,CGTGTCACGTGTGGAC,0.21 kcal/mol
18,TTTGACACGTGTACGT,0.03 kcal/mol
19,CTAGGCACGTGTAAGT,0 kcal/mol
20,TTGGCCACGTGTCGTG,-0.06 kcal/mol
21,TTTGTCACGTGTATCT,-0.03 kcal/mol
22,TTTCTCACGTGGTTCT,0.15 kcal/mol
